# A structure can be active in one record and inactive in another.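 Compound tested at a single concentration for 48 hours in 96-well plates; a percent growth value below 10 was scored as active.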 For part of its entries the source gives two or more results. This list holds those alone. An entry can have further records. This drug was run again and again over the years, at its own concentration, as given; each value is one run. Brackets with × give the number of equal values in this list.
# Experiments:
# MALME-3M melanoma = assay: NCI-60 one-dose screen, 48 h (100 = growth as untreated, 0 = no growth, -100 = all killed); conditions: 2.5 mM
# MDA-MB-231 breast = assay: as above; conditions: 2.5 mM
compound,measurement,setting,value
O=c1[nH]cc(F)c(=O)[nH]1,growth,MALME-3M melanoma; runs of 1993,"inactive: 30.6, 17.8, 33.1, 10.1, 29.6, 15, 10.6, 19.3, 16.6, 18.2, 21.9, 14, 15.7, 30.5, 24.6, 31.9, 17.3, 31.8, 11.3, 35.5, 24.5, 43.7, 25.1, 23.1, 77.3, 96.2, 37.1, 14.1, 39, 13.6, 20.2, 10.7, 49.2, 14.7% and active: 5.13, -5.13, -7.11, 0.744, 6.76, 6.6, -21.2, 7.43, 4.69, 5.96, 1.92, 5.87%"
same,growth,MALME-3M melanoma; runs of 1994,"inactive: 31.5, 22.1, 30, 24.7, 35.3, 23.4, 26.3, 36.9, 26.4, 31.8, 34.8, 15.1, 16.9, 28.4, 31.6, 72, 31.1, 36.3, 29.9, 47.4, 28.8, 46, 27.2, 16.2% and active: 9.16, 8.95, -18.3, -2.5, 1.85, -1.15, 2.8, 4.84%"
same,growth,MALME-3M melanoma; runs of 1995,"inactive: 23.1, 21.3 (2×), 43.2, 33.6, 14.5, 27.9, 19.9, 28.5, 35.9, 30.2, 17.5, 30, 33.5, 27.2, 50.4, 28, 22.9, 34.9 (2×), 12.5, 25.6, 31.1, 40.1, 16.5, 30.3, 41.6, 12.4, 35.4, 16.2, 40, 13.6, 36.2, 32.6% and active: -1.51, 5.63, -8.27, -14, 5.97, 1.39%"
same,growth,MALME-3M melanoma; runs of 1996,"inactive: 25.7, 13.1, 12.8, 44.5, 30.8, 20.1, 35.8, 20.9, 28.3, 24.5, 27.5, 32.9, 45.7, 25.3, 17.1, 35.3, 27.3, 10.8, 34.7, 15.3 (2×), 18.9, 24.4, 29.7, 28.5, 59.3, 38.6, 49.7, 57.3, 49.4% and active: -1.06, 5.89, -16.6, -0.0896, 2.95, 1.78, 1.97, -1.34, -0.194, -16.7%"
same,growth,MALME-3M melanoma; runs of 1997,"inactive: 22, 52.9, 51.1, 33.3, 60.6, 14.3, 44.5, 21.2, 31.1, 36.3, 19.5, 29.8 (2×), 27.7, 41.7, 31.8, 15.5, 18.1, 27.1, 26.8, 22.7, 15, 28.3, 18, 17.1, 47.8, 21.5% and active: -2.94, 7.3, 9.61, -10, 8.72, 3.39, -3.04%"
same,growth,MALME-3M melanoma; runs of 1998,"inactive: 26.8, 29.2, 26.3, 47.4, 51.4, 50.3, 18.2, 25.5, 17.8, 31.4, 40.3, 24.6, 38.9, 32.9% and active: 0.18, 8.97, 9.27, 0.889, 9.76, -4.87%"
same,growth,MALME-3M melanoma; runs of 1999,"inactive: 69.5%, 18.5%, 26.9% and active: -6.02, -18.2, -10.7, -100, -87.7, -96.9, -71.3, -5.62, -54.8%"
same,growth,MALME-3M melanoma; runs of 2000,"active: -26.7%, -86.5%"
same,growth,MDA-MB-231 breast; runs of 1993,"inactive: 28.3, 34.8, 16.1, 37.3, 27.2, 41.6, 44.2, 46.3, 30.6, 25.2, 52.2, 61.1, 31.7, 51.2, 50.6, 12.1 (2×), 44.6, 31.4, 47.1, 39.6, 15, 12.8, 27.7, 46.2, 29.7, 43.6, 41.3, 21.6, 17.5, 36.5, 17.4, 28.7, 47.6, 20.2, 73.4, 25.9, 45, 44.9, 39.3, 21, 36, 31.2, 46.5, 35.5%"
same,growth,MDA-MB-231 breast; runs of 1994,"inactive: 50.3, 21.6, 45.4 (2×), 63.9, 37.1, 50.2 (2×), 44.4, 40.2, 58.2, 40.8, 17.5, 24.2, 74.9, 66.2, 63.1, 59.8, 42.8, 56.6, 32.8, 27.9, 23, 64.1, 29.6, 44.7, 47.5, 35.4, 49.1, 10.1, 15.4, 41.2%"
same,growth,MDA-MB-231 breast; runs of 1995,"inactive: 76.3, 58.1, 20.6, 26.8, 73.3, 29.4, 40.1, 24, 63.4 (2×), 21.5, 58.2, 71.3, 70.5, 43.4 (3×), 35.6, 57.3, 57.6, 46.2, 69.8, 63.1, 43.8, 47.2, 17.7, 42.6 (2×), 29, 27.6, 49.7, 55.5, 56.5, 44.1, 55.8% and active: -24.6, -7.77, -27.5, -47.7, 5.7%"
same,growth,MDA-MB-231 breast; runs of 1996,"inactive: 45, 46, 63.7, 79.3, 44.4, 34.3, 15.3, 42.9, 44.6, 23.9, 60.3 (2×), 62.2, 42.4, 38.6, 24.7, 37.4, 61.2 (2×), 53, 46.4, 65.5, 71.9, 69.7, 61.1, 39.3, 17.1, 47.9, 37.5, 56.8, 48.9, 101, 47.1, 83, 22.4, 38.3, 27.4, 54.7, 53.9, 64, 41.3, 39, 59.1, 49.2, 31.7, 16.9, 39.9, 50.6, 33, 72.9, 46.6, 49.1, 58% and active: 0.23, 3.88, -99.6, -26.4, -51, -3.61%"
same,growth,MDA-MB-231 breast; runs of 1997,"inactive: 37.6, 54.4, 49.3, 43.3, 28.8, 41.3, 43.8 (2×), 36.1, 16.3, 51.8, 61.6, 36.3, 93.1, 77.1, 26.9, 63.2, 63, 73.4, 38.6, 48.6, 82.9, 43, 61.8, 41.5 (2×), 36, 46.2, 42.3 (2×), 62.9, 17, 39.4, 51.2, 61.9, 42, 33, 51.7% and active: -28.2, 7.87, 7.36, -11.2%"
same,growth,MDA-MB-231 breast; runs of 1998,"inactive: 28 (2×), 20, 57.6, 59.2, 46.4, 55.3, 50.8, 55.4, 68.1, 30.8, 35.2, 38.1, 53.7, 67.7, 50.2, 17.8, 60.4, 59.4, 23.1, 41.2, 50.9% and active: -32.2%, -15.4%"
same,growth,MDA-MB-231 breast; runs of 1999,"active: -28.7, -10.9, 4.63, -9.08, 5.18, 0.442, 1.29, -26.6, -4.88% and inactive: 53.2, 41.3, 21.1, 33.6%"

# Reference: PubChem BioAssay (NCI)
